This note sets out measurements from the supplement of paper PMC8821664.

Structures can show the parent of a compound that is named as a salt. The list shows a part of the results. Many values rest on one well or one pass, so single values are uncertain.
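Also: monoclonal Beas-2B line stably carrying CMV promoter-driven AQP5-HiBiT, 5,000 cells per well in 384-well plates, lytic HiBiT plus LgBiT NanoLuc luminescence, FDA-approved drug library screen.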

The subject of the assay is Beas-2B AQP5-HiBiT reporter cells. As to the kind of experiment: AQP5-HiBiT luminescence relative to vehicle (ratio to vehicle); higher = higher AQP5-HiBiT protein abundance. Particulars: 10 µM; 18 h.
Consider `CCN[C@H]1C[C@H](C)S(=O)(=O)c2sc(S(N)(=O)=O)cc21` [Dorzolamide hydrochloride], for which the AQP5-HiBiT luminescence is 1.03.

With `CCC[C@@H]1C[C@@H](C(=O)N[C@@H]([C@H]2O[C@H](SC)[C@H](OP(=O)(O)O)[C@@H](O)[C@H]2O)[C@H](C)Cl)N(C)C1` [Clindamycin phosphate], the AQP5-HiBiT luminescence stood at 0.886.

On to `CCCNC(C)C(=O)Nc1ccccc1C` (stereo not given) [Propitocaine hydrochloride], for which the AQP5-HiBiT luminescence came to 1.05.

For `C#Cc1cccc(Nc2ncnc3cc(OCCOC)c(OCCOC)cc23)c1` [Erlotinib hydrochloride], the AQP5-HiBiT luminescence came out at 0.512.

In the case of `CC(NCCc1ccc(O)cc1)C(O)c1ccc(O)cc1` (stereo not given) [Ritodrine hydrochloride], the AQP5-HiBiT luminescence was 0.675.

With `Oc1ccc(O)cc1` [Hydroquinone], the AQP5-HiBiT luminescence stood at 1.09.

Consider `CCN(CC)CCNC(=O)c1ccc(N)cc1` [Procainamide hydrochloride], for which the AQP5-HiBiT luminescence was found to be 0.72.

`CCN(CC)CC#CCOC(=O)C(O)(c1ccccc1)C1CCCCC1` (stereo not given) [Oxybutynin hydrochloride]: the AQP5-HiBiT luminescence was found to be 1.14.

As to `COC(=O)[C@H]1[C@H]2C[C@@H]3c4[nH]c5cc(OC)ccc5c4CCN3C[C@H]2C[C@@H](OC(=O)c2cc(OC)c(OC)c(OC)c2)[C@@H]1OC` [Reserpine], the AQP5-HiBiT luminescence is 1.91.

In the case of `C[C@]12C=CC(=O)N[C@@H]1CC[C@@H]1[C@@H]2CC[C@]2(C)[C@@H](C(=O)Nc3cc(C(F)(F)F)ccc3C(F)(F)F)CC[C@@H]12` [Dutasteride], the AQP5-HiBiT luminescence was determined as 0.962.

`C[C@@H](O[C@H]1OCCN(Cc2nn(P(=O)(O)O)c(=O)[nH]2)[C@H]1c1ccc(F)cc1)c1cc(C(F)(F)F)cc(C(F)(F)F)c1` [Fosaprepitant dimeglumine]: the AQP5-HiBiT luminescence stood at 0.851.

Take `FC(F)(F)C(Cl)Br` (stereo not given) [Anestan]: the AQP5-HiBiT luminescence was 0.867.

For `CC(=O)OCC1=C(C(=O)O)N2C(=O)[C@@H](NC(=O)Cc3cccs3)[C@H]2SC1` [Cephalothin sodium], the AQP5-HiBiT luminescence was 2.05.

For `CC1(C)[C@H](C(=O)O)N2C(=O)C[C@H]2S1(=O)=O` [Sulbactam], the AQP5-HiBiT luminescence was 0.975.

Turning to `NC(=O)CC[C@H](N)C(=O)O` [L-Glutamine], the AQP5-HiBiT luminescence came to 0.76.

Regarding `CC/C(=C(/CC)c1ccc(O)cc1)c1ccc(O)cc1` [Diethylstilbestrol], the AQP5-HiBiT luminescence came out at 1.35.

With `Fc1ccc([C@@H]2CCNC[C@H]2COc2ccc3c(c2)OCO3)cc1` [Paroxetine hydrochloride], the AQP5-HiBiT luminescence was found to be 1.03.

With `Cc1ncc([N+](=O)[O-])n1CCO` [Metronidazole], the AQP5-HiBiT luminescence is 0.905.

Take `CN(N=O)C(=O)N[C@@H](C=O)[C@@H](O)[C@H](O)[C@H](O)CO` [Streptozocin]: the AQP5-HiBiT luminescence was 0.791.

For `OCc1ccccc1` [Benzyl alcohol], the AQP5-HiBiT luminescence came to 0.738.

For the compound `CCOC(=O)CCC(=O)O[C@H]1[C@H](O[C@@H]2[C@@H](C)[C@H](O[C@H]3C[C@@](C)(OC)[C@@H](O)[C@H](C)O3)[C@@H](C)C(=O)O[C@H](CC)[C@@](C)(O)[C@H](O)[C@@H](C)C(=O)[C@H](C)C[C@@]2(C)O)O[C@H](C)C[C@@H]1N(C)C` [Erythromycin ethylsuccinate], the AQP5-HiBiT luminescence is 0.889.

Regarding `CC1=NN(c2ccc(C)c(C)c2)C(=O)/C1=N\Nc1cccc(-c2cccc(C(=O)O)c2)c1O` [Eltrombopag], the AQP5-HiBiT luminescence was determined as 0.865.

Regarding `C[N+]1(C)CCC(OC(=O)C(O)(c2ccccc2)C2CCCC2)C1` (stereo not given) [Glycopyrrolate], the AQP5-HiBiT luminescence is 0.665.

Turning to `CCCc1cc(=O)[nH]c(=S)[nH]1` [Propylthiouracil], the AQP5-HiBiT luminescence worked out at 1.05.

`COc1cc2/c(=N/c3ccc(Br)cc3F)nc[nH]c2cc1OCC1CCN(C)CC1` [Vandetanib (ZD6474)]: the AQP5-HiBiT luminescence worked out at 1.07.

`Nc1ccc(S(=O)(=O)Nc2ccccn2)cc1` [Sulfapyridine]: the AQP5-HiBiT luminescence came to 1.14.

For the compound `N[C@@H](CC(=O)N1CCn2c(nnc2C(F)(F)F)C1)Cc1cc(F)c(F)cc1F` [Sitagliptin], the AQP5-HiBiT luminescence worked out at 1.01.

With `Cc1ccnc2c1NC(=O)c1cccnc1N2C1CC1` [Nevirapine], the AQP5-HiBiT luminescence came out at 0.626.

With `CN1CCN(C2=Nc3ccccc3Oc3ccc(Cl)cc32)CC1` [Loxapine succinate salt], the AQP5-HiBiT luminescence is 1.5.

As for `O=c1ccn([C@@H]2O[C@H](CO)[C@@H](O)[C@H]2O)c(=O)[nH]1` [Uridine], the AQP5-HiBiT luminescence is 1.07.

Turning to `COC(=O)N[C@H](C(=O)N[C@@H](Cc1ccccc1)[C@@H](O)CN(Cc1ccc(-c2ccccn2)cc1)NC(=O)[C@@H](NC(=O)OC)C(C)(C)C)C(C)(C)C` [Atazanavir sulfate], the AQP5-HiBiT luminescence was determined as 0.699.

As to `CNCCCC1c2ccccc2C=Cc2ccccc21` [Protriptyline hydrochloride], the AQP5-HiBiT luminescence came out at 2.05.

Consider `CN(C)C/C=C/C(=O)Nc1cc2c(Nc3ccc(F)c(Cl)c3)ncnc2cc1O[C@H]1CCOC1` [Afatinib (BIBW2992)], for which the AQP5-HiBiT luminescence amounted to 2.16.

Consider `Cc1c(O)cccc1C(=O)N[C@@H](CSc1ccccc1)[C@H](O)CN1C[C@H]2CCCC[C@H]2C[C@H]1C(=O)NC(C)(C)C` [Nelfinavir Mesylate], for which the AQP5-HiBiT luminescence worked out at 1.63.

`CCC(C)n1ncn(-c2ccc(N3CCN(c4ccc(OCC5COC(Cn6cncn6)(c6ccc(Cl)cc6Cl)O5)cc4)CC3)cc2)c1=O` (stereo not given) [Itraconazole]: the AQP5-HiBiT luminescence stood at 1.38.

With `Nc1nc2[nH]cc(CCc3ccc(C(=O)N[C@@H](CCC(=O)O)C(=O)O)cc3)c2c(=O)[nH]1` [Pemetrexed disodium], the AQP5-HiBiT luminescence came out at 0.968.

As to `O=C(O)CCCCCCCC(=O)O` [Azelaic acid], the AQP5-HiBiT luminescence stood at 0.789.

`O=C(OCc1ccccc1)c1ccccc1` [Benzyl benzoate]: the AQP5-HiBiT luminescence was 0.828.

For the compound `CCCS(=O)(=O)Nc1ccc(F)c(C(=O)c2c[nH]c3ncc(-c4ccc(Cl)cc4)cc23)c1F` [Vemurafenib (PLX4032, RG7204)], the AQP5-HiBiT luminescence amounted to 0.277.

As for `CC(S)C(=O)NCC(=O)O` (stereo not given) [Tiopronin], the AQP5-HiBiT luminescence stood at 1.01.
